Measured values from article PMC4336329 (PLoS ONE, 2015).
Hit rate of the full screen: of about 310,000 compounds, about 14,000 (4.5%) showed an effect of 50% or more. The effect is printed as a negative number. Some of the results follow.

molecular target: human ether-à-go-go-related gene (hERG) potassium channel (human, UniProt Q12809); assay: primary screen, population patch clamp on CHO cells stably expressing hERG
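Note: peak tail current of the secondary pulse compared with the same well before compound.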

Chain of human ether-à-go-go-related gene (hERG) potassium channel (Q12809 whole entry, looked up): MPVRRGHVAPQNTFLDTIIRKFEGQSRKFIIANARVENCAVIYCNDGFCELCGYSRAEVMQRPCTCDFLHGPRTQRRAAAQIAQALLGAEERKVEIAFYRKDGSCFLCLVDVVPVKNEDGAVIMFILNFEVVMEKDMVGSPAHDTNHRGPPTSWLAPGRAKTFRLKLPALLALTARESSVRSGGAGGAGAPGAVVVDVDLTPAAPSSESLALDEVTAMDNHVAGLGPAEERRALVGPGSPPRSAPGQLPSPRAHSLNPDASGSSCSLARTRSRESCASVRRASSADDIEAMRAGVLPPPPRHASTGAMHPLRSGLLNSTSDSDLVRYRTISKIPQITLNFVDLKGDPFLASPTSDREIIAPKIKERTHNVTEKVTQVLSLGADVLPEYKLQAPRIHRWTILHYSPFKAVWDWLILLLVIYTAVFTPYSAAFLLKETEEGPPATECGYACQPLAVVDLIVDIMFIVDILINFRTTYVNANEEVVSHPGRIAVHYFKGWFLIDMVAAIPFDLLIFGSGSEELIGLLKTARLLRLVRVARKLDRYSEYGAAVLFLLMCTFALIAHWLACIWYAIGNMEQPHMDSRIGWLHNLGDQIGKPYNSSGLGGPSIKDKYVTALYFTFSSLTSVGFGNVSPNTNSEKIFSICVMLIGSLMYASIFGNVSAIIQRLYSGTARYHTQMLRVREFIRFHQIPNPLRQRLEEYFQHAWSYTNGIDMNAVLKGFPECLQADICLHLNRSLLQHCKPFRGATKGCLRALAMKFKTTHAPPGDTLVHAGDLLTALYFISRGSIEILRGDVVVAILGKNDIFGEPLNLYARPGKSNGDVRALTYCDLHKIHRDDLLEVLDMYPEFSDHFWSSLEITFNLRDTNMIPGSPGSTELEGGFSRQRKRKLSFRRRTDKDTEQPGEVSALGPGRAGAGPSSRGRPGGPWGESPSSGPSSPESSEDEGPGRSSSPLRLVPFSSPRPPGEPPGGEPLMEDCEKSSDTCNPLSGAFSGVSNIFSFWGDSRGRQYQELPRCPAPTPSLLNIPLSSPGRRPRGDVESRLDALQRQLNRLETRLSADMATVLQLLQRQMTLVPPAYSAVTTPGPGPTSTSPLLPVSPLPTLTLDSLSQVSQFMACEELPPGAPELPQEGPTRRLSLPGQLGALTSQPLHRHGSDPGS

| Structure (SMILES) | hERG current change (%, negative = inhibition) at 10uM |
| --- | --- |
| Cc1sc2nc(CSc3ccccc3)nc(N3CCOCC3)c2c1C | 2.04% |
| CC(C)(C)OC(=O)N1CCC(c2cc(-c3cccs3)n[nH]2)CC1 | -1.2% |
| CC1(C)OC(=O)C(=NNc2ccc(C(=O)O)cc2)C(=O)O1 | 9.21% |
| COc1ccccc1NC(=O)CN1CCN(CC(=O)Nc2ccc3c(c2)OCCO3)CC1 | -34.4% |
| N#Cc1ccccc1NCC(=O)N1CCN(S(=O)(=O)c2ccccc2)CC1 | -1.49% |
| O=C(NCc1ccc(F)cc1)C1CCCN1C(=O)Nc1cccc(F)c1 (stereo not shown) | -23.6% |
| O=C(O)CNC(=S)N(Cc1ccccc1)Cc1cccnc1 | 3.06% |
| Oc1ccc(NCc2cccc(OCc3ccc(F)cc3)c2)cc1 | -3.36% |
| COC(=O)[C@@H]1CCCN1Cc1c(C(=O)N2CCOCC2)nc2c(C)cccn12 | 24.1% |
| COc1ccc(NC(=O)C(C)N2CCN(C)CC2)cc1.O=C(O)C(=O)O (stereo not shown) | 7.47% |
| O=C(NN1CCOCC1)c1ccc(Cl)cc1[N+](=O)[O-] | 9.31% |
| COc1ccc(NC(=O)CN(C)C(=O)c2cccc(S(=O)(=O)Nc3ccc(OC)cc3)c2)cc1 | -33.2% |
| COc1ccccc1C(=O)Nc1ccc2c(c1)CN(Cc1cnc(C)s1)CC2 | -6.71% |
| CCNc1nc(NCC)nc(SCCOC(=O)Nc2ccccc2)n1 | -71% |
| N#Cc1ccccc1CCN1C(=O)c2ccccc2C1=O | 20.3% |
| Cc1cc(Cl)ccc1OCC(=O)NCCCN1CCOCC1 | -7.33% |
| C=CCC1(NC(C)c2ccccc2)CCCCC1 (stereo not shown) | 4.77% |
| O=C(CCCn1c(=S)[nH]c2ccccc2c1=O)NC1CCCC1 | -14.7% |
| O=C(COC(=O)CCN=C1NS(=O)(=O)c2ccccc21)NNC(=O)c1ccccc1 | 6.7% |
| CCN(CC(=O)Nc1c(F)cccc1F)C(=O)/C=C/c1ccc(S(=O)(=O)N2CCCCCC2)cc1 | -16.6% |
| Cc1cc(C(=O)NN)n[nH]1 | 12.4% |
| CCn1cc([N+](=O)[O-])c(C(=O)N2N=C(c3cccc4ccccc34)CC2c2ccccc2O)n1 (stereo not shown) | 6.73% |

| Structure (SMILES) | hERG current change (%, negative = inhibition) at 10uM |
| --- | --- |
| O=C1CCCC2=C1C(c1cccs1)n1nc(SCc3ccc(C(=O)O)cc3)nc1N2 (stereo not shown) | 2.81% |
| CC(C)S(=O)(=O)C1=NSC2=NC(=O)/C(=C\c3ccc(OC(=O)c4ccco4)cc3)C(=N)N21 | 12.8% |
| COc1ccc(CCN=C(N)NS(=O)(=O)c2ccc(C)c(C)c2)cc1 | -4.21% |
| O=C(Nc1cccc(Cl)c1Cl)C1CC(=O)N(c2ccc(Br)cc2)C1 (stereo not shown) | 15.8% |
| N#C/C(=C\c1cccs1)C(=O)NCC1CCCO1 (stereo not shown) | 13.1% |
| CCc1ccccc1NC(=O)NCc1cccnc1 | 20% |
| CN(C)CCCOc1ccc2c(c1)Sc1ccccc1CC2=O.Cl | -74.3% |
| O=[N+]([O-])c1ccc(-n2nnnc2CN2CCCCC2)cc1 | 3.57% |
| COCCCNC(=O)Cn1cc(C(=O)C2CC2)c2ccccc21 | -20.6% |
| COc1ccc(C(=O)Nc2cccc(C(=O)O)c2)cc1S(=O)(=O)N1CCCC1 | -6.4% |
| COCCCn1c(C(=O)NC2CCCCC2C)cc2c(=O)n3cccc(C)c3nc21 (stereo not shown) | -12% |
| COC(=O)c1ccccc1NC(=O)CN(c1ccccc1)S(=O)(=O)N(C)C | -19% |
| CC(OC(=O)c1ccc(=O)n(Cc2ccccc2)n1)C(=O)Nc1cccc(Cl)c1 (stereo not shown) | -31.3% |
| Cc1ccc(Cn2c(=N)n(CC(O)c3ccco3)c3ccccc32)cc1.Cl (stereo not shown) | -64.5% |
| O=C(Nc1nc2ccccc2[nH]1)c1ccccc1OC(F)F | 4.59% |
| COc1ccc(Nc2nc(N)nc(CN3CCN(c4ccccn4)CC3)n2)cc1 | -65.1% |
| CN(c1ccc(O)cc1)c1nc(-c2cccs2)cs1 | 15.5% |
| Cc1c(OC(C)C(=O)N[C@H](C(=O)O)c2ccccc2)ccc2c3c(c(=O)oc12)CCCC3 (stereo partly shown) | 3.5% |
| COc1ccccc1/C=N/NC(=O)c1ccc(Cn2nc([N+](=O)[O-])cc2C)cc1 | -12.7% |
| CN(C)c1ccc(C(=O)NCC2CCCO2)cc1 (stereo not shown) | 8.63% |
| CCOC(=O)N1CCc2c(sc(NC(C)=O)c2C(N)=O)C1 | 3.62% |
| CCC(CC)C1C(C#N)=C(N)Oc2cc(C)oc(=O)c21 (stereo not shown) | -12.7% |

| Structure (SMILES) | hERG current change (%, negative = inhibition) at 10uM |
| --- | --- |
| CCn1c(C(C)NC(=O)c2ccc(C)cc2)n[nH]c1=S (stereo not shown) | 12.7% |
| CC1(NC(=O)Nc2cccc3ccccc23)CCS(=O)(=O)C1 (stereo not shown) | 22.8% |
| O=C(CCCNC(=O)c1ccc(Cl)cc1)OCc1cccc(Br)c1 | 14.3% |
| Cc1ccn2c(=O)nc(SCC(=O)N3CCC(C)CC3)nc2c1 | -18.4% |
| COc1ccc(CNC(=O)CN2CCC(n3nnc4cc(F)ccc43)CC2)cc1 | -68% |
| CCOC(=O)c1c(C)c(C(=O)NCc2ccco2)c(C)n1CC | -7.45% |
| COc1ccc(/C=N\NC(=O)C2C(=O)NCC2c2ccccc2)cc1O (stereo not shown) | 24.5% |
| O=C(COc1coc(CN2CCc3ccccc32)cc1=O)Nc1ccc([N+](=O)[O-])cc1 | 8.5% |
| Cc1cnc(NC(=O)CSc2c(Cl)cccc2Cl)s1 | -6.06% |
| CCCc1cc(=O)[nH]c(SCc2cc(=O)oc3c(C)c(C)ccc23)n1 | 0.672% |
| Cc1nn2cc(-c3ccc(N)cc3)nc2s1 | -43.8% |
| O=c1c2c(ncn2C2CCCC2)n(Cc2ccccc2)c(=O)n1CCOc1ccc(Br)cc1 | 13.4% |
| CCOc1cc(/C=N/NC(=O)c2ccc(O)cc2)ccc1Oc1nc(Cl)ncc1F | -7.77% |
| CN(C)CCCNC(=S)Nc1ccc(Oc2ccccc2)cc1 | -3.24% |
| O=C(Nc1ccc(Br)cc1)c1ccc(F)c(S(=O)(=O)NCc2cccs2)c1 | -4.63% |
| COC(=O)c1ccc(NC(=O)Cn2nc(C)c3ccccc3c2=O)cc1 | 3.73% |
| COc1ccc(S(=O)(=O)c2c(O)cc(C)c(NS(=O)(=O)c3ccccc3)c2C)cc1 | 18.7% |
| Cc1cccc(NP(C)(=O)c2nc3c(s2)CCCC3)c1 (stereo not shown) | -0.347% |
| S=C(NCCN1CCOCC1)Nc1ccccc1Cl | 3.99% |
| O=C(N[C@@H](Cc1ccccc1)C(=O)OCc1ccccc1)c1nc[nH]c1C(=O)NC(c1ccccc1)c1ccccc1 | 21.1% |
| O=C(NC1CCCC1)[C@@H]1CSC2c3ccccc3C(=O)N21 (stereo partly shown) | 14.5% |
| COc1ccc2nc3c(cc2c1)c(NC(=O)C1CCCO1)nn3CC(C)C (stereo not shown) | -8.44% |

| Structure (SMILES) | hERG current change (%, negative = inhibition) at 10uM |
| --- | --- |
| CCOC(=O)c1c(NC(=O)CSc2ncn[nH]2)sc(C)c1C | -2.35% |
| COc1ccc([C@H]2CC(=O)C=C(c3cc(Cl)ccc3C)C2)cc1 | 5.62% |
| O=C(C[n+]1cnn(CC(=O)c2ccc(Cl)cc2Cl)c1)c1ccc([N+](=O)[O-])cc1.[Br-] | -73.3% |
| O=c1c2c3c(sc2n(CCN2CCCC2)c(=O)n1Cc1ccco1)CCCCC3 | -68.6% |
| COc1ccccc1C(=O)N/C(=C/c1ccco1)C(=O)Nc1cccc(C(=O)O)c1 | 4.16% |
| COc1ccc2cc(C(=O)/C=C/c3cc(OC)c(O)c(OC)c3)ccc2c1 | 8.79% |
| Cc1cc(CNC(=O)CC2C(=O)NCCN2Cc2ccccc2C(F)(F)F)nn1C (stereo not shown) | 9.04% |
| OCC1CCCC(n2cnc3c(=S)nc[nH]c32)O1 (stereo not shown) | 16.4% |
| CN1C(=O)CC(C(=O)O)SC1=Nc1cccc(C(F)(F)F)c1 (stereo not shown) | 5.61% |
| CCOC(=O)C1(Cc2cccc(OC)c2)CCCN(C(=O)CSC)C1 (stereo not shown) | 4.94% |
| Cn1cccc1/C=N/NC(=O)c1ccc[n+]([O-])c1 | 19.9% |
| CCN(CC)C(=O)c1ccccc1NS(=O)(=O)c1ccc(OC)c(C(=O)N2CCOCC2)c1 | 4.5% |
| Cc1ccc(-c2cc(NC(=O)CCl)n(-c3ccccc3)n2)cc1 | -35.7% |
| O=C(CSc1nnc(Cc2ccccc2)o1)c1cc(F)ccc1F | 14.9% |
| CCOC(=O)c1sc(NC(=O)Cn2nnc3sc4c(c3c2=O)CCCC4)nc1C | -1.92% |
| NC(=O)c1cc2cc(Cc3ccccc3Cl)ccc2oc1=O | 19.7% |
| CCOC(=O)NC(C)N1C(=O)C2C3C=CC(C3)C2C1=O (stereo not shown) | 1.17% |
| COc1ccc(C(c2c(C)n(C)n(-c3ccccc3)c2=O)c2c(C)n(C)n(-c3ccccc3)c2=O)c(OC)c1OC | 19.3% |
| O=c1cc(CSc2ccc(Cl)cc2)[nH]c2[nH]n(-c3ccccc3)c(=O)c12 | 17.6% |
| CCCCOC(=O)C1=C(C)Nc2nnnn2C1c1ccccc1Cl (stereo not shown) | 14.4% |
| COC(=O)c1ccc(/C=N/NS(=O)(=O)c2cc(C)ccc2C)cc1 | -0.827% |
| COc1cc(-c2nn3c(C4CCCCC4)nnc3s2)cc(OC)c1OC | -2.95% |
